From the supplement of paper PMC11417369
± gives the standard deviation of the averaged measurements. Some of the results follow.

System: PfAP2-LT AP2 domain (GST-tagged)
Assay: gcPBM binding intensity (ln(normalized median fluorescence intensity)); higher = stronger DNA binding
How it was run: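 Probes on an Agilent 4 × 180k array were primer-extended, double-stranded and 36 bp long, taken from intergenic genomic regions, with negative controls added. GST-tagged P. falciparum DNA-binding domains from E. coli, about 25 μg on average, were applied to the array for 1 h in 1× PBS containing 1% milk, 0.2 mg/ml BSA, 0.5% salmon testes DNA and 0.03% Triton X-100. Binding intensity, obtained after Alexa488 anti-GST antibody detection and a 488 nm scan, is the highest Masliner-normalised natural-log median intensity across replicate spots of either probe orientation.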

Point of comparison: TTTGTTTGTAAAATGTTGCACTTTCTTTTGCTGATA, “gcPBM binding intensity (ln)” value 8.87 ± 0.38. Against it:
- ATATAATTTATGTGCACACACTCCTATTTTTAGCTT [CACACA_site50] — within error, 9.43 ± 0.42
- AAAAAGTAAAAGAAAGCACACACACCGGTATATATG [CACACA_site9281] — higher, 9.7 ± 0.25
- AACAAAATAAGACACACACACAAATGTACCTATATA [CACACA_site7189] — higher, 9.74 ± 0.41
- TCTTTTTTAAATAAAAGTACAAAAAAAAATAAAAAA [XGTACX_site2670] — within error, 8.36 ± 0.44
- TAATATATATGTATGGCACACACGGATAAATATATA [CACACA_site930] — within error, 9.28 ± 0.31
- AAAAAAAATATGAAAACACACATATATAAATAAATA [CACACA_site113] — within error, 8.88 ± 0.46
- CATGCCTTTAAAAAGGTGCAAACATTTTCACAAACA — within error, 8.62 ± 0.57
- AAATTATTTTGTTATCATTATATATAGATTGAATAT [XGTACX_negctrl_site165] — within error, 8.42 ± 0.38
- AACGGGTAATGCACAAAAAAAAAAAAATAAAATAAA [TGCATGCA_negctrl_site474] — within error, 8.8 ± 0.65
- TTCTTTTAAATTAGCTGTACGGTTTTCTACATGCAT [XGTACX_site356] — within error, 9.22 ± 0.47
- TTATCATATGTATGCATACACACAAAAAATTATATA [CACACA_site397] — within error, 9.02 ± 0.38
- CAAACAAATATATGTTGTACTTATTATATATACATA [XGTACX_site2998] — within error, 8.6 ± 0.42
- ATGTAATTCTTTTACTTTTTTTTTTTTTTTTTTTTT [CACACA_negctrl_site979] — within error, 8.47 ± 0.46
- ATAAATGAGCCATATTAAATCCGTTACACGGGTGTG [CACACA_negctrl_site1368] — within error, 8.68 ± 0.42
- AAATAATTCATATGTTGTACAGTAATTAAATTTTCT [XGTACX_site6343] — within error, 8.52 ± 0.4
- ATAATTAATCCAAAATGTACTTACATTTTATATGAA [XGTACX_site8888] — within error, 8.4 ± 0.38
- ATAAGGATCAGACACAAACACACATATATATATATA [CACACA_site558] — higher, 10.1 ± 0.13
- TTTTTTTTTCTTTGCACACAGATAACTTGAAATTTG [CACACA_site2185] — within error, 8.97 ± 0.46
- TTTTATAATTTATCTAAAAAAAAATAAAATAAAATG [TGCATGCA_negctrl_site429] — lower, 7.95 ± 0.46
- ATAAAATAAAATAAAAGTACATAAATATATATATAT [XGTACX_site6110] — within error, 8.99 ± 0.43
- ACATATATATATATTACACACACACTAATAAAATAA [CACACA_site7920] — higher, 9.76 ± 0.14
- TTTCAAGAATTATATAAACACACATACATACACCCA [CACACA_site8592] — within error, 9.295 ± 0.092
- AATAATATATATTACTGTACTAATATAAGGGACATC [XGTACX_site3744] — within error, 9.03 ± 0.43
- TTATTTTCTACAAATTGTACATATTTTTTACTACTC [XGTACX_site1394] — within error, 9.05 ± 0.42
- TTGTCAAAAATTACACACATAAATGAATAAATAAAT [XGTACX_negctrl_site541] — within error, 9.05 ± 0.4
- ATTTATGAAAAAAATACATGCATGTCCATATAAATT [TGCATGCA_site505] — within error, 8.83 ± 0.55
- TCTTTCTATTAAACATGTACTTGTCTAAAGACATAA [XGTACX_site8564] — within error, 8.44 ± 0.45
- CGAATAAATATATGTAGTACATGTTGTAGATAATTT [XGTACX_site1218] — within error, 8.99 ± 0.47
- TATATATATTTAAATTGTACATATATTATTCATATG [XGTACX_site911] — within error, 8.73 ± 0.45
- TTGGTTTCTTGTTTTTGTACCCATAATTTGTAATAT [XGTACX_site1248] — within error, 8.97 ± 0.44
- AAAAAAAAAAAAAAAAGTACAAATTTAAAAATGTGT [XGTACX_site112] — within error, 8.62 ± 0.5
- AATAATAAAATAAAAGTGCATTAATTATAATTCTTT [GTGCAC_site9491] — within error, 8.52 ± 0.51
- AATTATAATAATAATAGTACATAAGTATATAAATAA [XGTACX_site2400] — within error, 8.88 ± 0.46
- TTAAATATTTATATTTGTACACAATCAATCATACAC [XGTACX_site5793] — within error, 8.68 ± 0.48
- GAGGAAAAAAAAAAAAGTACATTATATAAGAAAATT [XGTACX_site2610] — within error, 8.59 ± 0.51
- ATATATATATTTTATTGTACAAAAAAAAAAAAAAAA [XGTACX_site6803] — within error, 8.47 ± 0.4
- TTGTTATGCATTGGTTGTACATAAGTATAAGTAATT [XGTACX_site5401] — within error, 8.75 ± 0.31
- ATAGGATTCTCAAAGTGTACTTGTCTACTGTAGTTT [XGTACX_site4202] — the same, 8.87 ± 0.39
- CCATTATACACAATATGTACATATATATAATCATTT [XGTACX_site7942] — within error, 8.85 ± 0.38
- AAAAAAAAAATATGTACACACATATAAAATACATAA [CACACA_site6869] — within error, 9.13 ± 0.46
- ATATATATATTATATGCACACTAATAAGACTATTTA [CACACA_site5880] — within error, 8.79 ± 0.31
- CATAAATACAGTAACACACACAAAAAAATATGAATA [CACACA_site6066] — within error, 9.68 ± 0.54
- TGTTTTGTTATTTTTATTTATATAAATAAAGCTATA [GTGCAC_negctrl_site88] — within error, 8.57 ± 0.42
- ATGAACATCCAATATACACACATATATATTTATATT [CACACA_site829] — within error, 9.09 ± 0.36
- TAATGTTTCAAAATTTAATATACTACAAATATTATA [TGCATGCA_negctrl_site336] — within error, 8.18 ± 0.45
- CAAAAAAAAAAAAAAACACACATTAAATTATAAAGA [CACACA_site2613] — within error, 8.73 ± 0.64
- TTACAAAAAAAAAGGCGCGGATGGGGGCAATAGCAA [CACACA_negctrl_site238] — within error, 9.39 ± 0.45
- TTTATATAGAAACACACACACAAAAAAAAAAAAAAA [CACACA_site2646] — within error, 9.29 ± 0.43
- TAAGATATAAAAAATGTGCACATTAAAGTATTAATT — within error, 8.9 ± 0.45
- TGTTATTCTGCATATACACACAAATAACAATTTAAA [CACACA_site6943] — within error, 8.67 ± 0.38
- TCTTATGATGGAATGTTAAATATTACATTTTGTTTA [TGCATGCA_negctrl_site503] — within error, 8.45 ± 0.52
- TATATGTGGGTTTTTTTTATGTGTTTTTCTTTTTTT [CACACA_negctrl_site936] — within error, 9.15 ± 0.35
- CATTTCATTAATAAATGTACTTGTGAAGAGAAAAAG [XGTACX_site3115] — within error, 8.39 ± 0.43
- AAAAGATAAAAAGAAGTGCATAATAGGAACAAATAT [GTGCAC_site9717] — within error, 9.18 ± 0.51
- ACAAAATTTACAAAATGTACAAAATATACAAAATGT [XGTACX_site3543] — within error, 8.88 ± 0.39
- TACATAAATACATACACACACATATAACCAATGTAG [CACACA_site5243] — higher, 9.54 ± 0.21
- CACATATATACACATACACACACACCCATACACCCA [CACACA_site8505] — higher, 10.1 ± 0.25
- TTTACATTTTAGGAAGTGCATATAATAAATACTATC — within error, 8.47 ± 0.38
- AGAGTACAAGTAAATACACACATATATATGAAAATA [CACACA_site1079] — within error, 9.33 ± 0.44
- ATTTATATTTAATATACACACATTATTTTTTTATAT [CACACA_site574] — within error, 8.91 ± 0.49
- ATCACATTCCACGGTACACACTAAAAGAAAAATCAG [CACACA_site5907] — within error, 8.99 ± 0.41
- TATAATATGACAAGAAGTACATATATTTACATATAT [XGTACX_site1571] — within error, 8.73 ± 0.44
- ATATAATATTTTAGAGTGCACCGATAACAATAAATA [GTGCAC_site9754] — within error, 8.8 ± 0.47
- CAAGTATTATATTGCGCATGCAAAGAAGGACACAAA [TGCATGCA_site1024] — within error, 9.12 ± 0.42
- TTATCTAGTACATACATACACACAACCATGTTATGA [CACACA_site3988] — within error, 9.02 ± 0.38
- ATATATATATATATATATATAATAAAAGATCATTTA [XGTACX_negctrl_site371] — within error, 8.99 ± 0.31
- ATAATAAAAAGAAAAAGTACAAATGATTATGTTTGA [XGTACX_site3615] — within error, 8.95 ± 0.57
- TACTTTATTTTTTATACACACACAATATGTATATAT [CACACA_site9184] — within error, 9.26 ± 0.45
- GTATTTCTTTAATATACACACACCAAAACAAAAAAA [CACACA_site579] — within error, 9.12 ± 0.32
- AATAAATAAATAAGTACACACATATAAATATAAATA [CACACA_site6271] — within error, 9.13 ± 0.37
- TTCTACATGAAGTTATAAATTAATATTTTAATTTAT [XGTACX_negctrl_site134] — within error, 8.21 ± 0.47
- ATATATATATATATTTATTCATATATTTTTTGTCTT [TGCATGCA_negctrl_site58] — within error, 9.05 ± 0.52
- TAAAGAAACGCATCGACGCACACTACAAAATAAAAA [CACACA_site1348] — within error, 9.07 ± 0.52
- TTTTTATTTTTTCAGTGTACATTTAAATTATCTTAT [XGTACX_site3905] — within error, 8.69 ± 0.57
- AAATAAATACATAATACATGCATATTTAATATATAG [TGCATGCA_site135] — within error, 8.79 ± 0.52
- GTACAATCATATACTACATGCAGTTTTTTTTATTGA [TGCATGCA_site230] — within error, 8.93 ± 0.32
- AATTTTTTTTAATGATGTACTTTTTGAAAATAAACT [XGTACX_site4221] — within error, 8.34 ± 0.47
- TTTTCTTTTTCTTGTACACACATAATATGGATGAAA [CACACA_site808] — within error, 8.79 ± 0.51
- TAGATATATAAATACACACACATACACAAAAAAAAA [CACACA_site7652] — higher, 9.61 ± 0.18
- TTTTTTATTATTATTATTTTTTATGTATAATAATGT [CACACA_negctrl_site631] — within error, 8.55 ± 0.47
- TATAAATATCTGAATTGTACAGGTGAAAAAAAAAAT [XGTACX_site1867] — within error, 8.74 ± 0.51
- TATGAATACATTTGTTGTACTTAAATTTCCTTTATT [XGTACX_site5374] — within error, 8.73 ± 0.43
- TTACTTTTTTTTTTATGTACTTATATTTTTTACACT [XGTACX_site3503] — within error, 8.89 ± 0.5
- AAATAATTTATGCATACACACATATATATATATATA [CACACA_site4020] — higher, 9.63 ± 0.14
- TTTCTATTCCATTCAACACACAAAAATGTATGCTTT [CACACA_site1072] — within error, 8.91 ± 0.47
- AATGGATATTTCTTTATATATATCTTATTTGATTAT [XGTACX_negctrl_site284] — within error, 8.75 ± 0.41
- ATTATATAGAATTGTACATGCGAATTGTATAACGAT [TGCATGCA_site125] — within error, 9.04 ± 0.29
- TATAAACGTATAATATGTACACACACATATATACAA [XGTACX_site1686] — within error, 9.28 ± 0.31
